Experimental data as given in PubChem BioAssay AID1346428 (National Center for Advancing Translational Sciences (NCATS), 2018).
Among all 48,000 compounds or so, about 1,200 (2.5%) were called active. Inconclusive results (about 2%) are left out.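 How the source made its calls: active means activation of at least 60% and not above a set upper limit (about 1 call in 100 departs from these limits); inconclusive means activation of 40% to 60%, or above that upper limit; inactive means activation under 40%.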 Some of the results follow.

Target: Probable G-protein coupled receptor 32 (Homo sapiens) (UniProt O75388)
Sequence of UniProt O75388 (O75388 whole entry, looked up): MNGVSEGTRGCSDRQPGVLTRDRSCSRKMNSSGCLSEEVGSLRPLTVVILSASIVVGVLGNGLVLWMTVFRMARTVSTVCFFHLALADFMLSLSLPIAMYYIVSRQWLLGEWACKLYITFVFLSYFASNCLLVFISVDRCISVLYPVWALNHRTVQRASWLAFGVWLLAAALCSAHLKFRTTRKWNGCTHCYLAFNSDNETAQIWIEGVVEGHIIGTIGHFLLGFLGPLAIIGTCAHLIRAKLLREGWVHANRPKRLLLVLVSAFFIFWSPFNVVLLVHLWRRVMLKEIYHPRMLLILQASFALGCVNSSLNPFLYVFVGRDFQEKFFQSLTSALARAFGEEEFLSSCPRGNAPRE
Test: qHTS for Agonists of Human Resolvin D1 Receptor DRV1
Conditions: CHO-K1 GPR32 beta-arrestin PathHunter luminescence, 90 min; at 76.9 µM; stronger effect = higher value; zero percent set by DMSO-only wells
Summary of the method: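 Beta-arrestin recruitment read-out: luminescence from complemented beta-Gal in CHO-K1 GPR32 PathHunter cells, measured 1 h after detection reagent at ambient temperature following 90 min compound exposure at 37 °C; DMSO served as basal (EC0) control.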

activation, inactive:
CC1CCN(S(=O)(=O)c2ccc3c(c2)CCN3C(=O)Nc2cccc(Br)c2)CC1 -22%, O=C(NCC(c1ccc2c(c1)OCO2)N1CCN(c2ccccc2)CC1)C(=O)Nc1ccc(F)cc1 (stereo not drawn) -9.46%, CCOc1ccc(C(=O)c2cn(CC(=O)Nc3ccc(OC)cc3)c3cc4c(cc3c2=O)OCO4)cc1 1.18%, Cc1oc(-c2ccc(C(=O)NCCC(C)C)cc2)nc1CS(=O)(=O)c1ccccc1 44.6%, CC(C)CCn1c(=O)c2cccnc2n(CC(=O)Nc2ccccc2)c1=O -6.37%, CCS(=O)(=O)N1CC(=O)N(c2cccc(Cl)c2)C(C)(C(=O)NC2CCCCCC2)C1 (stereo not drawn) -8.37%, CCOC(=O)c1c(C)[nH]c(C)c1S(=O)(=O)N1CCCC(C(=O)Nc2ncccc2C)C1 (stereo not drawn) 1.5%, N#Cc1c[nH]n2c(NC3CCCC3)c(-c3cccc(Br)c3)nc12 -9.5%, COC(=O)c1sccc1S(=O)(=O)N(CC(=O)NCc1ccc(C)cc1)c1ccccc1 19.8%, COc1ccc(N2CCN(C(=O)c3ccc4c(c3)CCN4S(=O)(=O)c3ccccc3)CC2)cc1 -10.4%, COc1cc(NC(=O)CSc2cc(=O)n(C)c3ccccc23)cc(OC)c1OC 28.7%, CC(NCc1ccc2c(c1)n(C)c(=O)n2C)c1ccccc1 (stereo not drawn) -3.85%, COc1cccc(-c2cc(C(=O)NCc3ccccc3)no2)c1 34.2%, Cc1c(C(=O)N(C)Cc2ccccc2)sc2nc(-c3ccc(F)cc3)cn12 18.4%, Cc1cc(C)n2nc(CNC(=O)c3cccc(N(C)C)c3)nc2n1 12.4%, COCCCNC(=O)C1CCN(Cc2cc3ccccc3n2Cc2cccc(Cl)c2)CC1 4.37%, Cc1ccc(-c2cn3c(n2)sc2cc(C(=O)NC4CCCCCC4)ccc23)cc1 -12.1%, CCC12CN3CC(CC)(CN(C1)C3c1c[nH]c3ccccc13)C2=O (stereo not drawn) -16.4%, COc1ccc(NS(=O)(=O)c2ccc3c(c2)CC(C)N3C(=O)C2CCC2)cc1OC (stereo not drawn) 5.76%, CCn1cc(C(=O)N(C)c2cc(C)ccc2C)c2cc(OC)c(OC)cc2c1=O 4.44%, CSc1nn(CC(=O)Nc2ccc(C)cc2C)c(N)c1S(=O)(=O)c1ccc(Cl)cc1 37.7%, COc1ccc(Br)cc1CNC(=O)C1CCN(c2nnc(-n3cccc3CNc3ccc(C)cc3)s2)CC1 -27.4%, O=C(O)c1cc2cc(Cc3cccnc3)ccc2o1 10%, COc1cc2c(C(=O)N3CCN(c4ccc(F)cc4)CC3)cn(CC(C)C)c(=O)c2cc1OC 0.897%, CCOc1ccccc1NC(=O)C1CCCN(S(=O)(=O)c2cccs2)C1 (stereo not drawn) 3.38%, CCCN(Cc1cccs1)C(=O)Nc1cc(C)cc(C)c1 -13.4%, CCN(CC)C(=O)Cn1c(=O)n(-c2ccc(Cl)cc2)c(=O)c2c3c(sc21)CCCCC3 -36.1%, Cc1nn(C)c2c1c(-c1ccccc1)cc(=O)n2Cc1ccc(F)cc1Cl -3.44%, CCOc1ccc(N2CC(NC(=O)Cc3cccs3)CC2=O)cc1 (stereo not drawn) 0.493%, COc1ccc(NC(=O)CC2C(=O)N(c3ccc(OC)cc3)C(=O)N2Cc2ccc(OC)c(OC)c2)cc1 (stereo not drawn) 6.59%, COc1ccc(-c2nc3ccccc3o2)cc1NC(=O)c1cccc2c(Cl)cccc12 0.43%, CCOc1ccc(CCNC(=O)CCn2c(=O)c3cccn3c3ccc(F)cc32)cc1OCC -16.6%, CCOc1ccc(NC(=O)CCc2c(C)nc3c4c(C)cc(C)nc4nn3c2C)cc1 1.7%, COc1ccc2cc(-c3nc(-c4ccc(N(C)C)cc4)no3)c(=O)oc2c1 -5.21%, Cc1ccc(C)c(CSc2cn(CC(=O)N3CCCC3)c3ccccc23)c1 -0.477%, CN(Cc1ccccc1)c1ccc2cc(S(=O)(=O)N3CCCCC3)ccc2n1 -0.66%, O=C(CCS(=O)(=O)c1cc(Br)cc2c1N(C(=O)C1CC1)CC2)N1CCN(c2ccccc2)CC1 2.3%, COc1ccc(OC)c(CCNC(=O)c2cnn(-c3ccccc3)c2-n2cccc2)c1 0%, CNC(=O)C1CCN(C(=O)N2CC(C)Oc3ccc(Cl)cc32)CC1 (stereo not drawn) -0.104%, Cc1nnc2c3ccccc3nc(N3CCN(c4ccccc4)CC3)n12 -11.9%, CCOc1ccc(C2CC(=O)c3c([nH]c(C(=O)OCCOc4ccccc4)c3C)C2)cc1 (stereo not drawn) 38.1%, CCOC(=O)C1CCCN(C(=O)c2ccccc2NC(=O)c2nsc3ccccc23)C1 (stereo not drawn) -21.7%, O=C(c1ccc2c(c1)N(Cc1cccc(Cl)c1)C(=O)c1ccccc1S2(=O)=O)N1CCCC1 -33.8%, Cc1ccccc1Cn1nnc2c(=O)[nH]c(C3CCCN(C(=O)c4ccc(C(C)(C)C)cc4)C3)nc21 (stereo not drawn) -18.1%, O=C(Cn1cc(SCc2ccc(F)cc2)c2ccccc21)N1CCCCCC1 -30.8%, N#Cc1c(-c2ccccc2)cc(-c2ccccc2)nc1SCC(O)CS(=O)(=O)Cc1ccccc1 (stereo not drawn) -22.4%, CCOCCCNC(=O)C1CCCN(c2ncnc3onc(C)c23)C1 (stereo not drawn) 13.3%, O=C(CCc1ccccc1)N(Cc1cccnc1)c1nc2ccc(F)cc2s1 -19.7%, CCN(CC)C(=O)CSc1nc2c(c(=O)n(C)c(=O)n2C)n1Cc1ccccc1 -11.5%, CCOc1ccc(NC(=O)c2cnn(-c3ccccc3)c2-n2cccc2)cc1 -6.74%, COc1ccccc1Cc1nc2ccccc2nc1SCC(=O)N1CCCCC1 -29.4%, C=C1c2cccc(O)c2C(O)=C2C(=O)[C@]3(O)C(O)=C(C(N)=O)C(=O)[C@@H](N(C)C)[C@@H]3[C@@H](O)[C@H]12 -0.884%

activation, active:
O=S(=O)(Nc1nc2n(n1)C(c1ccc(F)cc1)C=C(c1ccc(Cl)cc1)N2)c1ccccc1 (stereo not drawn) 94.8%
